From PMC12136788
This is one part of the list.

B1: chr16:88863332:88863755:-|three_prime_utr|ENSG00000205022|control|control|control (ssRNA)
RNA: GGGAGUUCUACAGUCCGACGAUCCAGAGGAGAGGGGUGUCCAGAGCAGCCACUGGCCCCCUCUUGGCGGGGGGAUGGCCCAGUAGGGCCUUGUAUGGUGGUCCAGACCCAAGGCCACAGCCACGAGUCACAGCCACGGCCCGGCAACAGAGGAUUGAGCAUCA
B2: chr20:50583650:50583751:+|3pUTR|ENSG00000196396|msi1|FALSE|unique (ssRNA)
RNA: GGGAGUUCUACAGUCCGACGAUCUUCCUAAGCCUGUUGCUGAAGUCAUUGUCGCUCAGCAAUAGGGUGCAGUUUUCCAGGAAUAGGCAUUUGCCUAAUUCCUGGCAUGACACUCUAGUGACUUCCUGGUGAGGCCCAGCCUGUCAACAGAGGAUUGAGCAUCA
B3: chr2:15946816:15946917:+|3pUTR|ENSG00000134323|unk|total|mutant (ssRNA)
RNA: GGGAGUUCUACAGUCCGACGAUCUAUAUGCCUUUUUCCCCGCCUGUUUCUUCCUGUUAAUGUAUUUGUUCAUGUUUGGUGCACCGAACUGGGUAAAUGCAAAGUUCUGUGUUUAAUUUCUUCAAAAUGUAUAUAUUCCGUGCUCAACAGAGGAUUGAGCAUCA
B4: ENSG00000197555:stop:overlap|stop_codon|ENSG00000197555|stop_codon|NA|stop_codon (ssRNA)
RNA: GGGAGUUCUACAGUCCGACGAUCACGCCUCGGACAAGCUGAAGAAGUUCACAGAAUGGGUCUUCAACACCAUAGACAUGAGCUAGGGAAGGCUGAGGAGGACAGGAGAAGGGCCCAGACACUCCCUCCAGUGAGUGUCCUGCACAACAGAGGAUUGAGCAUCA
B5: chr4:183512276:183512377:+|3pUTR|ENSG00000168556|unk|total|mutant (ssRNA)
RNA: GGGAGUUCUACAGUCCGACGAUCCUGCUUGUUUUGGGAAAAAAAAAUGCUUUUUUUCUCUUCCCGCUCUCCUGUGUGACUUUCCGGCAUGUCAUUUCACCUUGUCUGGGUGUCAGGUCAUUCACCUGUAAAAUGAGUUGGCUUCAACAGAGGAUUGAGCAUCA
B6: chr12:131960804:131960905:+|CDS|ENSG00000183495|unk|FALSE|bound_elsewhere (ssRNA)
RNA: GGGAGUUCUACAGUCCGACGAUCCCCUCAGCAAGCCCGUCGGCACCCCAGUCUCCCAGUUAUCAAAUACAGCAGCUGAUGAAUAGGAGCCCUGCAACCGGGCAGAACGUGAACAUCACCCUGCAGAGCGUGGGCCCUGUCGUCCAACAGAGGAUUGAGCAUCA
B7: ENSG00000111530:stop:overlap|stop_codon|ENSG00000111530|stop_codon|NA|stop_codon (ssRNA)
RNA: GGGAGUUCUACAGUCCGACGAUCUCUUUGAAAGUAUCCAGAAAGAUUCAUCAUCUACUAACUUGGAAUCAAUGGACACUAGUUAGAUGUUUGUUCACCAUGGGGACCAUUACAUAUGACCAUACAAUGCACUGAAUUGACAGGCAACAGAGGAUUGAGCAUCA
B8: chr3:57561443:57561544:+|3pUTR|ENSG00000174840|unk|FALSE|unique (ssRNA)
RNA: GGGAGUUCUACAGUCCGACGAUCGAAAUUUAAAUAUGAAGCCAAACUUUUUAAAAUUAGAAACUACAAAUGGUUAUACUGAUUAGUGUCUAGCCUAGAGUGGUAACCAUGCUUUACUAAUUCAGUUAUGAAAUACAUUAUUUACAACAGAGGAUUGAGCAUCA
B9: ENSG00000198589:be:win_8701|3pUTR|ENSG00000198589|bound_else_gene|NA|bound_elsewhere_windowed (ssRNA)
RNA: GGGAGUUCUACAGUCCGACGAUCUGUAGUCUUUGCUUGACUUUUUUGGGGGGGAUUAGCAAAGCAGAAAACUGGCUGCUGGGUUCUGUAGUUUUAAAAAAUCUAUAUUUUUAGUCAUAAUGAGAAGUCUAUUUUCACCAAUUACAACAGAGGAUUGAGCAUCA
B10: chr11:2928445:2928542:-|3pUTR|ENSG00000181649|msi1_unk|FALSE|overlapping (ssRNA)
RNA: GGGAGUUCUACAGUCCGACGAUCAUUGGACUAUCUAAUAUCUAUGUAUUUAUUUCGCUGGUUCUUUGUAGUCACAUAUUUUAUAGUCUUAAUAUCUUGUUUUUGCAUCACUGUGCCCAUUGCAAAUAAAUCACUUGGCCAGUUCAACAGAGGAUUGAGCAUCA
B11: chr10:71816509:71816622:-|3pUTR|ENSG00000197746|msi1_unk|total|mutant (ssRNA)
RNA: GGGAGUUCUACAGUCCGACGAUCUGCCUACAUGUCCCUGGCUGUUGAGGCGCUGCUUCAGCCUGCACCCCUCCCUUGUCUCACCGAUGCUCCUUUUGACCUUUUCAAAUAAAUAUGGAUGGCGAGCUCCCCGGCCUCUGGCUUCAACAGAGGAUUGAGCAUCA
B12: chr17:18209558:18209659:+|3pUTR|ENSG00000091542|msi1|FALSE|unique (ssRNA)
RNA: GGGAGUUCUACAGUCCGACGAUCGGUAGCUUCUAUCCACUCAGAUCCUGGAAGGCAGCAAGGUUUUGUGGAUCUAGAUUCAUUAGGAAUGUCUUCUUGUCAGCCAGGCCAGGACCCGGGCUUGCCAAGAGCAGAGGCCCUCCCCAACAGAGGAUUGAGCAUCA
B13: chr15:41696124:41696239:+|CDS|ENSG00000174197|unk|total|mutant (ssRNA)
RNA: GGGAGUUCUACAGUCCGACGAUCUGCCGCCUCACCGUCCGACCAGAACGGAAGCUUCAAUGUUGUUAUUAAAGAGGAACCUCCCGAUGAUUAUGACUACGAACUUGGUGAGUGCCCAGAAGGGGUCACUGUGAAACAGGAAGACAACAGAGGAUUGAGCAUCA
B14: chr5:171410733:171410822:+|3pUTR|ENSG00000181163|msi1_unk|FALSE|overlapping (ssRNA)
RNA: GGGAGUUCUACAGUCCGACGAUCGUUUUUAAAGAUGGAACUCCACCCUUUGCUUGGUUUUAAGUAUGUAUGGAAUGUUAUGAUAGGACAUAGUAGUAGCGGUGGUCAGACAUGGAAAUGGUGGGGAGACAAAAAUAUACAUGUCAACAGAGGAUUGAGCAUCA
B15: ENSG00000257103:stop:overlap|stop_codon|ENSG00000257103|stop_codon|NA|stop_codon (ssRNA)
RNA: GGGAGUUCUACAGUCCGACGAUCGUCGUGGGGGCCGGGAGUUUGCGGAUUUUGAAUAUAGGAAAGACAACAAAGUUGCUGCAUAGUCUACAAACAAGUCUCUGAAAAUAGGUGAAUUUCUAGCUCUUCAUGGUCCUGAACAUUCAACAGAGGAUUGAGCAUCA
B16: chr1:113797602:113797710:-|CDS|ENSG00000081019|unk|FALSE|bound_elsewhere (ssRNA)
RNA: GGGAGUUCUACAGUCCGACGAUCUUUAUGACUCACCAGGAACAUUCUAUUCGUAGAAAUUUCUUAAAAACAGGUACUAAAUUUAGCAACUUUAUUCAUGAGGAACACCAGUCCAAUGGUGGUGCUCUUGUCCUUCAUGCUUACCAACAGAGGAUUGAGCAUCA
B17: chr2:189033597:189033698:-|3pUTR|ENSG00000204262|msi1|total|mutant (ssRNA)
RNA: GGGAGUUCUACAGUCCGACGAUCAAGAGUGGGGUAUACCGAGCCACAACACAUGUUUAUUUUGCUUGGCUGCAGUUGAAAAACCGAAAUCCGUGCCCUUUUGUGACCUCUCAUUCCAAGAUUGUCAAUUAAAAAUGAGUUUAACAACAGAGGAUUGAGCAUCA
B18: chr11:43342853:43342954:+|3pUTR|ENSG00000166181|msi1|FALSE|unique (ssRNA)
RNA: GGGAGUUCUACAGUCCGACGAUCCUAGUUCUGCUGAUAAAGAUCAUCAGUUUUGAAAGGUUACUGAUUUUCCUCUUCCCUCUUAGUUUUUUACCCAAUAUAUGGAGAAGAGUAAUGGUCAAUCUUAACAUUUUGUUUUAAUUGCAACAGAGGAUUGAGCAUCA
B19: chr21:46004801:46004902:+|3pUTR|ENSG00000142156|msi1|total|mutant (ssRNA)
RNA: GGGAGUUCUACAGUCCGACGAUCAGACUGGGGCCUGGACUGGACAUGAGAGCCCCUUGGUGCCACAGAGGGCUGUGUCUUACCCGAAACAACGCAAACCUCUCCUUCCUCAGAACCGUGAUGUGUUCGACGUUUUAUCAAAGGCAACAGAGGAUUGAGCAUCA
B20: chr1:23559171:23559278:-|CDS|ENSG00000117318|unk|total|mutant (ssRNA)
RNA: GGGAGUUCUACAGUCCGACGAUCAACCACUGCUACUCCCGCCUGCGGGAACUGGUACCCGGAGUCCCGAGAGGCACUCAGCUCCGCCAGGUGGAAAUCCUACAGCGCGUCAUCGACUACAUUCUCGACCUGCAGGCCGUCCUGCAACAGAGGAUUGAGCAUCA
B21: chr2:37644049:37644150:-|3pUTR|ENSG00000163171|msi1|total|mutant (ssRNA)
RNA: GGGAGUUCUACAGUCCGACGAUCUCCGGACAACUAACCAAGCCGACGAAACAAGUUCCCCCCGGCAGGGGUGUCCAAUAUUUCCGCUUCCCUGGACCGCAUUGGAAGAAUUUUCUUGGGCCACAUGUAAAACACACUAACACUCAACAGAGGAUUGAGCAUCA
B22: ENSG00000119396:stop:overlap|stop_codon|ENSG00000119396|stop_codon|NA|stop_codon (ssRNA)
RNA: GGGAGUUCUACAGUCCGACGAUCCCCCGCAGGGAGGCCGGCUAACCAGUGAACCCCAACCCCAGAGAGAAGGCUGUGGCUGCUAGUGACCUCUUUGCUGUGGCCCCUCAUUUGACCUUUCACCUCUGUCUGUUGGAAGCAGUACAACAGAGGAUUGAGCAUCA

What follows are binders tested against MSI1 full-length (mouse, UniProt Q61474 1-362) (assay: nsRBNS (natural sequence RNA bind-n-seq); RBNS binding buffer (assumed for nsRBNS): 25 mM Tris pH 7.5, 150 mM KCl, 3 mM MgCl2, 0.01% Triton X-100, 500 ug/ml BSA, 20 U/ml SUPERase-In, 4 C; UNK is unkempt and MSI1 is Musashi-1; names of the RNAs are library labels; protein concentration not given here; high values mean tight binding).
Sequence of UniProt Q61474 (Q61474 whole entry): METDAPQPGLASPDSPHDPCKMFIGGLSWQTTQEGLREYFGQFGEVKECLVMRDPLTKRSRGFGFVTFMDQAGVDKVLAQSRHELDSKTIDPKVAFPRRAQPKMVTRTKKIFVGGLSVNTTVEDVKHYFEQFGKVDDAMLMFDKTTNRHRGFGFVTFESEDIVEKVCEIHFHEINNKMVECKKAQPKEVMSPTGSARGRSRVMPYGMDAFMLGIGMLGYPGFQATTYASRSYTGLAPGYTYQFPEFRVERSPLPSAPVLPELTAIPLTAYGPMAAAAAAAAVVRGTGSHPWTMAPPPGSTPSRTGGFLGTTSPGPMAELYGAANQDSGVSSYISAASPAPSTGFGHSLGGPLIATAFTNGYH

| Binder | binding signal [enrichment R] |
| --- | --- |
| B1 | 0.416 |
| B2 | 0.237 |
| B3 | 0.895 |
| B4 | 0.335 |
| B5 | 0.259 |
| B6 | 0.593 |
| B7 | 0.506 |
| B8 | 12 |
| B9 | 12.4 |
| B10 | 12 |
| B11 | 0.627 |
| B12 | 1.93 |
| B13 | 0.363 |
| B14 | 4.73 |
| B15 | 0.245 |
| B16 | 0.991 |
| B17 | 0.285 |
| B18 | 4.11 |
| B19 | 0.524 |
| B20 | 0.491 |
| B21 | 0.397 |
| B22 | 0.669 |
